# Measured values reported in the supplement of paper PMC9135407.
# Several values for one entry are separate records, joined by “and”; a condition that tells them apart may be missing. Equal entries are not always repeated. Structures can show the parent of a compound that is named as a salt. Screen size: about 5,800 compounds; about 620 (11%) showed activity.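 Rule for the calls: active = score above a cut-off or among the top three wells of a plate; in these data no inactive exceeds 0.85.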 The entries are a selection whose mix differs from that of the whole data set.
# System: primary human hepatic stellate cells (donor 1)
# Test: scaled lipid accumulation score (0 = DMSO-like, 1 = nortriptyline-like); higher = stronger HSC inactivation (lipid re-accumulation), active = hit call of the paper
# Conditions: 48 h
# [1] = library stock concentration: 3.33 mM
# [2] = library stock concentration: 10 mM
# [3] = library stock concentration: 80 uM
# [4] = library stock concentration: 400 uM
# [5] = library stock concentration: 2 mM
# [6] = library stock concentration: 1 mM
# [7] = library stock concentration: 6.2 mM
structure (smiles),measurement,setting,value
COc1cc2c(Nc3ccc(Br)cc3F)ncnc2cc1OCC1CCN(C)CC1 [Vandetanib (ZD6474)],scaled lipid accumulation score,[1],active: 1.18
O=C1CCc2c(ccc3ccccc23)O1 [Splitomicin],scaled lipid accumulation score,[2],inactive: ≤ -0.006
CC[C@@H]1C(=O)N(C)c2cnc(Nc3ccc(C(=O)NC4CCN(C)CC4)cc3OC)nc2N1C1CCCC1,scaled lipid accumulation score,[3],inactive: 0.007
same,scaled lipid accumulation score,[4],inactive: 0.527
same,scaled lipid accumulation score,[5],inactive: 0.722 and inactive: 0.628
same,scaled lipid accumulation score,[1],inactive: 0.569
same,scaled lipid accumulation score,[2],inactive: 0.749 and inactive: 0.538 and inactive: 0.259
O=S(=O)(c1cccc2c(Cl)cccc12)N1CCCNCC1,scaled lipid accumulation score,library stock concentration: 15.4 mM,active: 0.912
O=C1c2ccccc2C(Cc2ccncc2)(Cc2ccncc2)c2ccccc21 [XE 991 dihydrochloride],scaled lipid accumulation score,[2],inactive: ≤ -0.001
O=C(NCCN1CCC(n2c(=O)[nH]c3cc(Cl)ccc32)CC1)c1ccc(F)cc1 [Halopemide],scaled lipid accumulation score,[6],inactive: ≤ 0
COC(=O)Nc1nc2cc(C(=O)c3ccc(F)cc3)ccc2[nH]1,scaled lipid accumulation score,[2],inactive: 0.633
COC(=O)Nc1nc2cc(C(=O)c3ccc(F)cc3)ccc2[nH]1 [Flubendazole],scaled lipid accumulation score,library stock concentration: 6.4 mM,inactive: 0.751
"COc1cc2ncnc(Nc3cccc(O)c3)c2cc1OC [WHI-P180, Hydrochloride]",scaled lipid accumulation score,[1],inactive: ≤ 0
CN(C)CC=CC(=O)Nc1cc2c(Nc3ccc(F)c(Cl)c3)ncnc2cc1OC1CCOC1 (stereo unspecified),scaled lipid accumulation score,[5],active: 0.855
CC(=O)O[C@H]1Cc2ccccc2N(C(N)=O)c2ccccc21,scaled lipid accumulation score,[2],inactive: ≤ 0
CCOC(=O)c1ccc(O)cc1 [Ethyl paraben],scaled lipid accumulation score,library stock concentration: 12 mM,inactive: ≤ -0.001
O=C(Nc1ccc(C(F)(F)F)cn1)N1CCN(c2ncccc2C(F)(F)F)CC1,scaled lipid accumulation score,[2],inactive: 0.012
CC(C)(C)NC(=O)[C@@H]1CN(Cc2cccnc2)CCN1C[C@@H](O)C[C@@H](Cc1ccccc1)C(=O)N[C@H]1c2ccccc2C[C@H]1O,scaled lipid accumulation score,[2],inactive: ≤ 0
CC(=O)NCCc1c(Cc2ccccc2)[nH]c2ccccc12 [Luzindole],scaled lipid accumulation score,[2],inactive: ≤ 0
O=C(O[C@@H]1C[C@@H]2C[C@H]3C[C@H](C1)N2CC3=O)c1c[nH]c2ccccc12 [Dolasetron],scaled lipid accumulation score,[7],inactive: ≤ -0.002
O=C(O[C@@H]1C[C@@H]2C[C@H]3C[C@H](C1)N2CC3=O)c1c[nH]c2ccccc12,scaled lipid accumulation score,library stock concentration: 10.4 mM,inactive: ≤ 0
O=C(O)c1ccccc1Nc1cccc(OCc2ccc3ccccc3n2)c1 [SR 2640 hydrochloride],scaled lipid accumulation score,[2],inactive: ≤ -0.006
O=C(O)c1ccccc1Nc1cccc(OCc2ccc3ccccc3n2)c1,scaled lipid accumulation score,[2],inactive: ≤ 0
COc1cc(C(O)C(=O)O)ccc1O (stereo unspecified),scaled lipid accumulation score,[2],inactive: ≤ -0.036
CC(O)CC(C)(C)O (stereo unspecified),scaled lipid accumulation score,[2],inactive: ≤ 0
CCCCC[C@H](O)/C=C/[C@@H]1[C@H]2C/C(=C/CCCC(=O)O)O[C@H]2C[C@H]1O [Prostaglandin I2 (sodium salt)],scaled lipid accumulation score,[6],inactive: ≤ 0
CCCCC[C@H](O)/C=C/[C@@H]1[C@H]2C/C(=C/CCCC(=O)O)O[C@H]2C[C@H]1O [Prostaglandin I2],scaled lipid accumulation score,[6],inactive: ≤ -0.021
NC1=N[C@@]2(c3cc(NC(=O)c4ccc(F)cn4)ccc3F)COC[C@H]2CS1,scaled lipid accumulation score,[1],inactive: 0.012
same,scaled lipid accumulation score,[2],inactive: 0.209
COc1ccc(COc2cc3oc(=O)c4cc(C(C)O)ccc4c3cc2OC)cc1 (stereo unspecified),scaled lipid accumulation score,[3],inactive: ≤ 0
same,scaled lipid accumulation score,[4],inactive: 0.025
same,scaled lipid accumulation score,[5],inactive: ≤ 0
same,scaled lipid accumulation score,[2],inactive: 0.307
COc1ccc(COc2cc3oc(=O)c4cc(C(C)O)ccc4c3cc2OC)cc1 (stereo unspecified) [Palomid 529 (P529)],scaled lipid accumulation score,[1],inactive: ≤ 0
same,scaled lipid accumulation score,[2],inactive: ≤ 0
CCN(CC)CCCCC1CCN(CC(=O)N2c3ccccc3C(=O)Nc3cccnc32)CC1,scaled lipid accumulation score,[2],inactive: 0.136
COc1ccccc1N1CCN(CCN2C(=O)CC3(CCCC3)CC2=O)CC1,scaled lipid accumulation score,[1],inactive: 0.031
same,scaled lipid accumulation score,[2],inactive: 0.068
COc1ccccc1N1CCN(CCN2C(=O)CC3(CCCC3)CC2=O)CC1 [BMY 7378 dihydrochloride],scaled lipid accumulation score,[2],inactive: ≤ 0
OCC(O)CN1CCN(c2ccccc2)CC1 (stereo unspecified) [Dropropizine],scaled lipid accumulation score,[1],inactive: ≤ 0
same,scaled lipid accumulation score,[2],inactive: ≤ -0.001 and inactive: 0.038
CC[C@]1(O)C[C@H]2CN(CCc3c([nH]c4ccccc34)[C@@](C(=O)OC)(c3cc4c(cc3OC)N(C)[C@H]3[C@@](O)(C(N)=O)[C@H](O)[C@]5(CC)C=CCN6CC[C@]43[C@@H]65)C2)C1.O=S(=O)(O)O,scaled lipid accumulation score,library stock concentration: 9.7 mM,active: 1.52
C[C@H](O)C(=O)C1=Nc2c(nc(N)[nH]c2=O)NC1 [Sepiapterin],scaled lipid accumulation score,[2],inactive: ≤ 0
COc1cc(N)c(Cl)cc1C(=O)NC1CCN(CCCOc2ccc(F)cc2)CC1OC (stereo unspecified) [Cisapride],scaled lipid accumulation score,,inactive: 0.386
same,scaled lipid accumulation score,[2],inactive: 0.291
CCCCCCCCC=CCCCCCCCCCCCC(N)=O [13-Docosenamide],scaled lipid accumulation score,[6],inactive: ≤ 0
O=C(O)CCC/C=C/C[C@@H]1[C@@H](/C=C/[C@@H](O)COc2cccc(C(F)(F)F)c2)[C@H](O)C[C@@H]1O [5-trans Fluprostenol],scaled lipid accumulation score,[6],inactive: 0.008
CC(C)(C)c1cc(/C=C(\C#N)C(N)=S)cc(C(C)(C)C)c1O [Tyrphostin AG 879],scaled lipid accumulation score,[1],inactive: ≤ 0
same,scaled lipid accumulation score,[2],inactive: ≤ 0
CN1CCC(CNc2ccc3ncc(-c4cccc(OC(F)(F)F)c4)n3n2)CC1,scaled lipid accumulation score,[5],active: 1.4
CN(CCCOc1ccc(Cc2ccccc2)cc1)CCC(=O)O,scaled lipid accumulation score,[2],inactive: ≤ 0
COC1=CC(=O)C[C@@H](C)[C@]12Oc1c(Cl)c(OC)cc(OC)c1C2=O [Griseofulvin],scaled lipid accumulation score,,inactive: 0.178
same,scaled lipid accumulation score,[1],inactive: ≤ 0
same,scaled lipid accumulation score,library stock concentration: 5.7 mM,inactive: ≤ -0.001
same,scaled lipid accumulation score,[2],inactive: 0.103 and inactive: 0.383 and inactive: 0.011
Cc1cc(CS(=O)(=O)c2ccccc2)cc(OCc2ccc(CN3CCC[C@@H]3CO)cc2)c1,scaled lipid accumulation score,[2],active: 1.03
CCC(=O)NCC[C@@H]1CCc2ccc3c(c21)CCO3 [Ramelteon],scaled lipid accumulation score,[1],inactive: 0.06
same,scaled lipid accumulation score,library stock concentration: 7.7 mM,inactive: ≤ 0
same,scaled lipid accumulation score,[2],inactive: ≤ 0 and inactive: 0.067
O[C@@H](COc1cccc2ncccc12)CN1CCN(C2c3ccccc3[C@@H]3[C@H](c4ccccc42)C3(F)F)CC1 (stereo partly specified),scaled lipid accumulation score,[1],inactive: 0.206
same,scaled lipid accumulation score,[2],inactive: 0.837
CNC(=O)c1c(I)c(NC(C)=O)c(I)c(C(=O)O)c1I,scaled lipid accumulation score,[2],inactive: 0.042
"C[C@H](NC(=O)/C(C#N)=C/c1ccc(O)c(O)c1)c1ccccc1 [Tyrphostin B44, (+) enantiomer]",scaled lipid accumulation score,[2],inactive: ≤ 0
C[C@H](NC(=O)/C(C#N)=C/c1ccc(O)c(O)c1)c1ccccc1 [Tyrphostin AG 835],scaled lipid accumulation score,[2],inactive: ≤ 0
COc1ccc(-c2coc3cc(O)cc(O)c3c2=O)cc1 [Biochanin A],scaled lipid accumulation score,[1],inactive: ≤ 0
same,scaled lipid accumulation score,[2],inactive: 0.029
COc1ccccc1CNCCCCCCNCCCCCCCCNCCCCCCNCc1ccccc1OC [Methoctramine tetrahydrochloride],scaled lipid accumulation score,[2],inactive: 0.621
CCC(=O)Nc1cccc(Oc2nc(Nc3ccc(N4CCN(C)CC4)cc3OC)ncc2Cl)c1,scaled lipid accumulation score,[2],active: 1.11
O=C(NC1CCNCC1)c1n[nH]cc1NC(=O)c1c(Cl)cccc1Cl,scaled lipid accumulation score,[3],inactive: 0.367
same,scaled lipid accumulation score,[4],inactive: 0.117 and inactive: 0.282
same,scaled lipid accumulation score,[5],inactive: 0.26 and inactive: 0.49
same,scaled lipid accumulation score,[1],inactive: 0.109
same,scaled lipid accumulation score,[2],inactive: 0.212 and inactive: 0.239 and inactive: 0.462
CC(C)c1noc(N2CCC(COc3ccc(-c4ccc(S(C)(=O)=O)cc4)nc3)CC2)n1,scaled lipid accumulation score,[1],inactive: 0.019
same,scaled lipid accumulation score,[2],inactive: 0.16
CCCCC[C@H](O)/C=C/[C@H]1CCC(=O)[C@@H]1C/C=C\CCCC(=O)O [11-deoxy Prostaglandin E2],scaled lipid accumulation score,[6],inactive: 0.072
CCCCCCCCCCCCCC(=O)N[C@H](CO)[C@H](O)c1ccc([N+](=O)[O-])cc1,scaled lipid accumulation score,[6],inactive: 0.012
CC[C@H](Nc1ncnc2[nH]cnc12)c1nc2cccc(F)c2c(=O)n1-c1ccccc1,scaled lipid accumulation score,[3],inactive: ≤ -0.016
same,scaled lipid accumulation score,[4],inactive: ≤ -0.016
same,scaled lipid accumulation score,[5],inactive: 0.044
same,scaled lipid accumulation score,[2],inactive: 0.005
"CC[C@H](Nc1ncnc2[nH]cnc12)c1nc2cccc(F)c2c(=O)n1-c1ccccc1 [CAL-101 (Idelalisib, GS-1101)]",scaled lipid accumulation score,[1],inactive: ≤ 0
same,scaled lipid accumulation score,[2],inactive: ≤ 0
COc1cc2c(N3CCN(C(=O)Nc4ccc(OC(C)C)cc4)CC3)ncnc2cc1OCCCN1CCCCC1,scaled lipid accumulation score,[2],active: 1.24
CN(C)[C@@H](CCOc1cccc2ccccc12)c1ccccc1 [Dapoxetine HCl],scaled lipid accumulation score,[1],inactive: 0.506
same,scaled lipid accumulation score,[2],inactive: 0.625
Nn1nnc2ccccc21 [1-Aminobenzotriazole],scaled lipid accumulation score,[2],inactive: 0.068
CN(C)CCCC1(c2ccc(F)cc2)OCc2cc(C#N)ccc21 (stereo unspecified) [Citalopram hydrobromide],scaled lipid accumulation score,[2],inactive: 0.259 and inactive: 0.597
CN(C)CCCC1(c2ccc(F)cc2)OCc2cc(C#N)ccc21 (stereo unspecified) [Citalopram Hydrobromide],scaled lipid accumulation score,,inactive: ≤ 0
CN(C)CCCC1(c2ccc(F)cc2)OCc2cc(C#N)ccc21 (stereo unspecified) [Citalopram],scaled lipid accumulation score,[7],inactive: 0.446 and inactive: 0.566
same,scaled lipid accumulation score,[2],inactive: 0.51
O=C(O)CNC(=O)C(CS)Cc1ccccc1 (stereo unspecified) [Thiorphan],scaled lipid accumulation score,,inactive: ≤ 0
Cc1onc(-c2ccccc2)c1C(=O)N[C@@H]1C(=O)N2[C@@H]1SC(C)(C)[C@@H]2C(=O)O [Micropenin],scaled lipid accumulation score,[2],inactive: 0.3
Cc1onc(-c2ccccc2)c1C(=O)N[C@@H]1C(=O)N2[C@@H]1SC(C)(C)[C@@H]2C(=O)O [Oxacillin sodium],scaled lipid accumulation score,library stock concentration: 4.7 mM,inactive: ≤ -0.001
same,scaled lipid accumulation score,[2],inactive: ≤ 0
Cc1onc(-c2ccccc2)c1C(=O)N[C@@H]1C(=O)N2[C@@H]1SC(C)(C)[C@@H]2C(=O)O [Oxacillin sodium monohydrate],scaled lipid accumulation score,library stock concentration: 5 mM,inactive: 0.014
